From PubChem BioAssay AID720709 (National Center for Advancing Translational Sciences (NCATS), 2013)
The campaign covered roughly 360,000 compounds. About 520 (0.14%) were called active. The shares of active, inactive and inconclusive entries below differ from those in the screen. Calls come from the whole dose curve; as a rule, active = well fitted inhibition curve with a large enough effect; inconclusive = small, poorly fitted or top-dose-only effect; inactive = no such curve, though single readings can be large or run the other way. No potency is given beside an inconclusive call; the fits are too rough.

The compounds below were run against Rap guanine nucleotide exchange factor 3 (Homo sapiens) (UniProt O95398) (assay: qHTS for Antagonist of cAMP-regulated guanine nucleotide exchange factor 3 (EPAC1): primary screen). Conditions: EPAC1 GEF assay, Rap1b-BODIPY-GDP exchange fluorescence; series mostly up to 115 µM.
Chain of UniProt O95398 (O95398 whole entry, looked up): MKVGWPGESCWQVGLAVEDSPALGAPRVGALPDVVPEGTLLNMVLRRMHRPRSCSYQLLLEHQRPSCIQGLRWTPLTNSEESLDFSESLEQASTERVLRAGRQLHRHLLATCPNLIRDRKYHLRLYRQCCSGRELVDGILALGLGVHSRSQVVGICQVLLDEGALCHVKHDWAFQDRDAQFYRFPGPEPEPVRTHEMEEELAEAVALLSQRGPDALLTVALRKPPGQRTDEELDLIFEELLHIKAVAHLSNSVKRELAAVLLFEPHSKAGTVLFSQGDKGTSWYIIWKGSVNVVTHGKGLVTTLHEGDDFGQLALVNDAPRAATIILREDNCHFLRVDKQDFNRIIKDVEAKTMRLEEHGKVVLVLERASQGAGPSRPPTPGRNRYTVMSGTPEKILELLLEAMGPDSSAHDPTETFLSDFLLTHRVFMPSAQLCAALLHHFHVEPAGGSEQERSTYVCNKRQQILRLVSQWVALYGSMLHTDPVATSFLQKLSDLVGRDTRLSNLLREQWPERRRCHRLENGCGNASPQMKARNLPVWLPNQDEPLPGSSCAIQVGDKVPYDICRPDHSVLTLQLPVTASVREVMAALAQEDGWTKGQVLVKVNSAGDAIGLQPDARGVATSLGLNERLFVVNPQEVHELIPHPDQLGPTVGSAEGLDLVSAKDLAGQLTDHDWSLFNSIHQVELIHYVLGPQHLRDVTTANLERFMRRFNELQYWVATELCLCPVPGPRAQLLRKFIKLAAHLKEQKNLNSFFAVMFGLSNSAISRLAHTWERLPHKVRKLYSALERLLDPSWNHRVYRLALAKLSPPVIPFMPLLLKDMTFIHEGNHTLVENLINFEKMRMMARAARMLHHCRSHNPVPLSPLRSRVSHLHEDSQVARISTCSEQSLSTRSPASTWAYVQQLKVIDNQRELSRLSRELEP
Note: nearly all actives have a fitted effect of over 50% in size.
Potency is the fitted concentration of half-maximal effect; tags give direction and shape of the fitted curve.

Row | SMILES | Potency
1 | N#Cc1ccc(-c2nc3cc(Cl)ccc3c(=O)n2O)cc1 | inconclusive [inhibitor, full curve]
2 | O=c1oc2ccccc2c(Nc2cccc3ccccc23)c1[N+](=O)[O-] | inconclusive [inhibitor, single point]
3 | O=C(O)CCN1C(=O)NC2(CCCC2)C1=O | inconclusive [inhibitor, full curve, poor fit]
4 | COc1ccc(Cl)cc1NC(=O)COC(=O)c1cc(NS(=O)(=O)c2cccs2)ccc1O | inconclusive [inhibitor, partial curve]
5 | CCOc1ccc(CN2CCN(Cc3cc4c(cc3Cl)OCO4)CC2CCO)cc1 (centres undefined) | inconclusive [inhibitor, partial curve]
6 | Cc1ccc2oc(=O)c(/C=C(\O)CC(C)C)nc2c1 | inactive
7 | COc1ccc(Br)c(-c2nnc(CS(=O)(=O)c3ccccc3)o2)c1 | inconclusive [inhibitor, partial curve]
8 | CCCCN(CCCC)S(=O)(=O)c1ccc(NS(=O)(=O)c2ccc(NC(C)=O)cc2)cc1 | inconclusive [inhibitor, full curve]
9 | CC(=O)c1ccc(NS(=O)(=O)c2cc3c(cc2C)N(C)CCO3)cc1 | inactive
10 | Cc1ccc(S(=O)(=O)Oc2ccccc2/C=N/Nc2ccc(C(=O)O)cc2)cc1 | inconclusive [inhibitor, single point]
11 | O=C(Cc1ccccc1)N/N=C/c1cc(Br)cc(Br)c1O | inconclusive [inhibitor, full curve, poor fit]
12 | COc1ccc(/C=C2/S/C(=N/N=C3\CC4CCC3(C)C4(C)C)NC2=O)cc1 (centres undefined) | inconclusive [inhibitor, single point]
13 | O=C(NCCCc1ccccc1)c1ccc(CS(=O)Cc2ccccc2Cl)o1 (centres undefined) | inconclusive [inhibitor, partial curve]
14 | COC(=O)Cn1cnc(C(=O)Nc2ccc(C)c(C)c2)n1 | inconclusive [inhibitor, single point]
15 | Cc1cccc(NC(=S)NCCSc2ccc(Cl)cc2)c1 | inconclusive [inhibitor, single point]
16 | COc1ccc(-c2[nH]ncc2CN2CCCO2)cc1F | inconclusive [inhibitor, single point]
17 | Cc1cccc(CN2CCC(C(N)=O)CC2)c1 | inactive
18 | N=c1n(Cc2ccccc2)c2ccccc2n1Cc1ccccc1 | inactive
19 | O=C(Nc1nnc(-c2ccccc2Cl)o1)c1nc2ccccc2s1 | inconclusive [inhibitor, partial curve]
